Several values for one entry are separate records, joined by “and”; a condition that tells them apart may be missing. Identical values can stand only once. Counter-ions that a name gives are not always drawn. ± gives the standard deviation of the averaged measurements. The full ranking holds about 3,100 compounds; the median of “mean cytoplasmic OPP incorporation (global translation) relative to DMSO” is about 100, and the lowest 2% start at about 56. This is one part of the list.
These molecules were tested on U2OS (assay: mean cytoplasmic OPP incorporation (global translation) relative to DMSO (% of DMSO); higher = more protein synthesis). Conditions: 10 µM; 24 h.
Experimental: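 Primary image-based screen in U2OS cells: compounds at 10 uM for 24 h, then a 1 h o-propargyl-puromycin (OPP) pulse, click labelling, and high-throughput microscopy. Mean cytoplasmic OPP intensity and nuclei count were normalised to DMSO wells within each plate (DMSO = 100) and averaged over triplicate plates.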

SMILES	mean cytoplasmic OPP incorporation
CN(CCOc1ccc(CC2SC(=O)NC2=O)cc1)c1ccccn1 (centres undefined) [Rosiglitazone Hydrochloride]	106
CN(CCOc1ccc(CC2SC(=O)NC2=O)cc1)c1ccccn1 (centres undefined) [Rosiglitazone maleate]	112
O=C(NCC(=O)N1CCCC1)Nc1ccc2cnccc2c1	81.2
Cn1c([N+](=O)[O-])cnc1COC(N)=O [Ronidazole]	101
O=C1c2ccccc2S(=O)(=O)N1CCCCN1CCN(c2ncccn2)CC1 [Ipsapirone]	93.1 ± 2.5
Cc1ccc2c(c1)C(=O)C1(O)CCN(c3ccccc3)C1=N2 (racemic) [(±)-Blebbistatin]	103
CN(C)[C@@H]1C(O)=C(C(N)=O)C(=O)[C@@]2(O)C(O)=C3C(=O)c4c(O)ccc(Cl)c4[C@@H](O)[C@H]3C[C@@H]12 [Demeclocycline hydrochloride]	96.3
O=C(O)c1cc(O)c2ccc(Cl)cc2n1 [7-Chlorokynurenic acid]	99.9
Cc1cc(Nc2nc(N[C@@H](C)c3ncc(F)cn3)ncc2Cl)[nH]n1	80.6
COC[C@H](NC(=O)c1cnc(C)s1)C(=O)N[C@@H](COC)C(=O)N[C@@H](Cc1ccccc1)C(=O)[C@@]1(C)CO1 [Oprozomib (ONX 0912)]	62.1
O=C(O)CCC/C=C\C[C@@H]1CO[C@H](C(F)(F)F)O[C@@H]1c1ccccc1O	101
CC(Oc1ccccc1)C(=O)N[C@@H]1C(=O)N2[C@@H]1SC(C)(C)[C@@H]2C(=O)O (some centres undefined) [Phenethicillin potassium salt]	94
CC[C@@H]1/C=C(\C)C[C@H](C)C[C@H](OC)[C@H]2O[C@@](O)(C(=O)C(=O)N3CCCC[C@H]3C(=O)O[C@H](/C(C)=C/[C@@H]3CC[C@H](Cl)[C@H](OC)C3)[C@H](C)[C@@H](O)CC1=O)[C@H](C)C[C@@H]2OC [Pimecrolimus]	115
COc1ccc(C(=O)NCc2ccc(OCCN(C)C)cc2)cc1OC [Itopride]	89.3
N[C@@H](C(=O)N[C@@H]1C(=O)N2C(C(=O)O)=C(Cl)CS[C@H]12)c1ccccc1 [Cefaclor hydrate]	88.8
CCN1CC(CCN2CCOCC2)C(c2ccccc2)(c2ccccc2)C1=O (centres undefined) [Doxapram HCl]	99.6
O=C(c1cc(O)c(O)c(O)c1)c1ccc(O)c(O)c1O [Exifone]	100
Cc1c(C(=O)NN2CCOCC2)nn(-c2ccc(Cl)cc2Cl)c1-c1ccc(I)cc1	102
Cc1cnc(CNC(=O)c2c(=O)c3ccc(N4CCCN(C)CC4)nc3n3c2sc2ccccc23)cn1	116
CN(C)Cc1cccc(N/C(=C2\C(=O)Nc3cc(C(N)=O)ccc32)c2ccccc2)c1	92.6
CC(=O)N[C@H]1[C@H]([C@H](O)[C@H](O)CO)OC(C(=O)O)=C[C@@H]1NC(=N)N [Zanamivir (Relenza)]	99.8
Nc1ncnc2c1ncn2[C@@H]1O[C@H](COP(=O)(O)OP(=O)(O)OP(=O)(O)O)[C@@H](O)[C@H]1O [ATP (Adenosine-Triphosphate)]	98.7
CC(C)Oc1ccc2c(=O)c3cc(C(=O)O)ccc3oc2c1	102
CNCCC(Oc1ccc(C(F)(F)F)cc1)c1ccccc1 (centres undefined) [Fluoxetine hydrochloride]	101 ± 9.2
Cc1nc2n(c(=O)c1CCN1CCC(c3noc4cc(F)ccc34)CC1)CCCC2 [Risperidone]	110

SMILES	mean cytoplasmic OPP incorporation
C[C@@H](CN1CC(=O)NC(=O)C1)N1CC(=O)NC(=O)C1 [Dexrazoxane hydrochloride]	101
C[C@@H](CN1CC(=O)NC(=O)C1)N1CC(=O)NC(=O)C1 [Dexrazoxane HCl]	112
C#CCN1C(C)=C(C(=O)OC)C(c2cccc([N+](=O)[O-])c2)C(C(=O)OCC)=C1C (centres undefined)	101
OCc1cc(C(O)CNCCCCCCOCCCCc2ccccc2)ccc1O (centres undefined) [Salmeterol]	110 ± 3.7
CC(=O)OCC(=O)[C@@]12N=C(C)O[C@@H]1C[C@H]1[C@@H]3CCC4=CC(=O)C=C[C@]4(C)[C@H]3[C@@H](O)C[C@@]12C [Deflazacort]	106
CC(=O)OCC(=O)[C@@]12N=C(C)O[C@@H]1C[C@H]1[C@@H]3CCC4=CC(=O)C=C[C@]4(C)[C@H]3[C@@H](O)C[C@@]12C [Deflazacort (Calcort)]	114
O=C(O)Cc1sc(-c2ccccc2)nc1-c1ccc(Cl)cc1 [Fentiazac]	108
CC(C)(C)NC[C@H](O)c1ccc(O)c(CO)c1 [Levalbuterol hydrochloride]	107
CCn1cc(C(=O)O)c(=O)c2cnc(N3CCCC3)nc21 [Piromidic acid]	102
COc1ccc(Nc2ncnc3ccc(OC)cc23)cc1 [MPMQ hydrochloride]	98.9
O=S(=O)(O)CCS [Mesna]	101
CCOC(=O)OC(C)OC1=C(C(=O)Nc2ccccn2)N(C)S(=O)(=O)c2ccccc21 (centres undefined) [Ampiroxicam]	105
O=C(Nc1c(Cl)cncc1Cl)c1ccc(OC(F)F)c(OCC2CC2)c1 [Roflumilast (Daxas)]	102
CC(=O)[C@H]1CC[C@H]2[C@@H]3C[C@H](C)C4=CC(=O)CC[C@]4(C)[C@H]3[C@@H](O)C[C@]12C [Medrysone]	105
CCCS(=O)(=O)Nc1ccc(F)c(C(=O)c2c[nH]c3ncc(-c4ccc(Cl)cc4)cc23)c1F [Vemurafenib (PLX4032)]	118 ± 4.7
C[N+](C)([O-])CCNc1ccc(NCC[N+](C)(C)[O-])c2c1C(=O)c1c(O)ccc(O)c1C2=O [Banoxantrone dihydrochloride]	87.9
CCCCNC(=O)NS(=O)(=O)c1ccc(C)cc1 [Tolbutamide]	82.1 ± 25
O=C(O)c1cc(-c2ccc(F)cc2F)ccc1O [Diflunisal]	99.5
c1ccc2c(-c3ccncc3)c[nH]c2c1 [Rockout]	103
CCCCC(CC)CNC(=N)NC(=N)NCCCCCCNC(=N)NC(=N)NCC(CC)CCCC (centres undefined) [Alexidine dihydrochloride]	72.4
Oc1c2ccccc2c2c3c(cccc13)N=N2	88.6 and 88.2
COC(=O)[C@@H]1[C@H]2C[C@H]3c4[nH]c5ccccc5c4CCN3C[C@@H]2CC[C@@H]1O [Yohimbine hydrochloride]	102 ± 3.5
CC(C)C[C@H](NC(=O)[C@H]1O[C@@H]1C(=O)O)C(=O)NCCCCN=C(N)N	103
Cc1[nH]c(/C=C2\C(=O)Nc3ccc(S(=O)(=O)N(C)c4cccc(Cl)c4)cc32)c(C)c1C(=O)N1CCN(C)CC1	88.9
CN(C)Cc1ccc(-c2nc3cccc4c3n2CCNC4=O)cc1	122

SMILES	mean cytoplasmic OPP incorporation
CC1(C)NC(=O)N(c2ccc([N+](=O)[O-])c(C(F)(F)F)c2)C1=O [Nilutamide]	98.6 ± 1.5
N[C@@H](CC(=O)Nc1ccc(Oc2cc(F)c(F)cc2Br)cc1)C(=O)O	100
Cc1nc(NC(=O)N2CCC[C@H]2C(N)=O)sc1-c1ccnc(C(C)(C)C(F)(F)F)c1	92.5 ± 5.2
COc1ccc2cc([C@@H](C)C(=O)O)ccc2c1 [(R) -Naproxen sodium salt]	94.4
Nc1nc(=O)c2c([nH]1)NC[C@@H](CNc1ccc(C(=O)N[C@@H](CCC(=O)O)C(=O)O)cc1)N2C=O [Folinic acid calcium salt]	106
CC(C)NCC(O)COc1cccc2ccccc12 (centres undefined) [Propranolol hydrochloride]	109
COc1ccc2cc1Oc1ccc(cc1)C[C@H]1c3cc(c(OC)cc3CCN1C)Oc1c(OC)c(OC)cc3c1[C@H](C2)N(C)CC3 [Tetrandrine]	112
Nc1ncnc2c1c(-c1cnc3[nH]ccc3c1)nn2C1CCCC1	44.2
Cc1c[nH]c(=O)n(CCCN2CCN(c3ccccc3OCC(F)(F)F)CC2)c1=O	112
Cc1coc2c1C(=O)C(=O)c1c-2ccc2c(C)cccc12 [Tanshinone I]	104
CCC1=C(C)CN(C(=O)NCCc2ccc(S(=O)(=O)NC(=O)N[C@H]3CC[C@H](C)CC3)cc2)C1=O [Glimepiride]	100 ± 6.4
Cc1ccccc1-n1c(Cn2nc(-c3cccc(O)c3)c3c(N)ncnc32)nc2cccc(C)c2c1=O	102
C[C@@]12C[C@@]3(O)O[C@@H](O1)[C@]1(COC(=O)c4ccccc4)[C@H]3C[C@@]12O[C@@H]1O[C@H](CO)[C@@H](O)[C@H](O)[C@H]1O [Paeoniflorin]	110
CCS(=O)(=O)CCn1c([N+](=O)[O-])cnc1C [Tinidazole]	103
N#C[C@@H]1C[C@@H]2C[C@@H]2N1C(=O)[C@@H](N)C12CC3CC(CC(O)(C3)C1)C2	101
O=C1CCc2cc(OCCCCc3nnnn3C3CCCCC3)ccc2N1 [Cilostazol]	106 ± 3
O=P(O)(O)C(Cl)(Cl)P(=O)(O)O [Clodronate]	106
Oc1ccc(-c2nc3cc(O)cc(Br)c3o2)cc1	89.5
CCCCOc1cc(C(=O)NCCN(CC)CC)c2ccccc2n1 [Dibucaine]	114
C[C@H](CC[C@@H]1OC1(C)C)[C@H]1CC[C@H]2[C@@H]3CC=C4C[C@@H](O)CC[C@]4(C)[C@H]3CC[C@]12C [24(S),25-Epoxycholesterol]	112
CN(C)[C@@H]1C(O)=C(C(N)=O)C(=O)[C@@]2(O)C(O)=C3C(=O)c4c(O)ccc(Cl)c4[C@@](C)(O)[C@H]3C[C@@H]12 [Chlortetracycline hydrochloride]	106
CC(C)[C@H](N)C(=O)N[C@H](C(=O)N[C@H](C(=O)O)C(C)C)C(C)C	114
CC(=O)N(CC(C)C(=O)O)c1c(I)cc(I)c(N)c1I (centres undefined) [Iocetamic acid]	87.2
CCCCCCCCc1ccc(CCC(N)(CO)CO)cc1 [Fingolimod (FTY720)]	91.9 ± 15

— the supplement of paper PMC8183993
